# Laboratory results published in ChEMBL document CHEMBL1157539, “Thousands of chemical starting points for antimalarial lead identification” (Nature, 2010).
# In all, about 13,000 compounds were measured (“IFI”: median about 4, highest 2% from about 17 on). Some of the results follow.
# Test: GSK_TCMDC: Inhibition Frequency Index (IFI). The number of non-kinase HTS assays where a compound showed > 50 % inhibition, expressed as a percentage of the number of such assays in which the compound was tested (-0 is zero)
# Assay type: functional
row,Compound,IFI [%]
1,CCC(NC(=O)c1ccccc1NC(=O)c1ccc(C)cc1)C(=O)OC (stereo not drawn),0
2,Cc1cc(CN2CCC(Nc3ncc(-c4ccsc4)c4nc(C(F)(F)F)ccc34)CC2)no1,7.46
3,CC(C)CCCC(C)(C)NC[C@@H](O)[C@H](Cc1ccccc1)NC(=O)c1cccc(CCC2CC2)c1,22.4
4,O=C(Nc1ccnc(-c2cccnc2)n1)c1cc(C(F)(F)F)cc(C(F)(F)F)c1,0
5,CCN(CC)CCN(Cc1ccc(-c2ccc(C(F)(F)F)cc2)cc1)C(=O)Cn1c(CCc2c(F)cccc2F)nc(=O)c2ccccc21,11.7
6,CCC[C@@H]([C@@H](Cc1ccc(C)s1)C(=O)N[C@@H](CNC(C)=O)C(=O)Nc1nccs1)N(O)C=O,1.59
7,COc1ccc(C2C(C(=O)Nc3ccccc3)=C(C)Nc3c(C(=O)Nc4ccccc4)cnn32)cc1 (stereo not drawn),-0
8,Cc1cccc2nc(-c3cccc(-c4ccc(NC(=O)CN5CCN(C)CC5)cc4)c3)[nH]c12,3.6
9,COc1cc(C2=NN(S(=O)(=O)c3c(C)cc(C)cc3C)CCCC2)ccc1Cl,2.22
10,COc1ccc(C(=O)C2CC2CN(C)CC(O)c2cc(C)c(OC)cc2C)cc1 (stereo not drawn),0.88
11,Ic1cc(CNC2CCCCC2)ccc1OCc1cccc(COc2ccc(CNC3CCCCC3)cc2I)c1,10.1
12,CC(=O)c1ccc2nc[nH]c(=O)c2c1,26.1
13,CCOc1ccc(OCCCON2C(=N)N=C(N)NC2(C)C)cc1,2.17
14,O=C(/C=C/c1ccc(Cl)c(Cl)c1)NCCCCCN1CCC(c2c[nH]c3ccc(O)cc23)CC1,8.57
15,COc1cccc(-c2cc(C(F)(F)F)n3ncc(C(=O)Nc4cc(Cl)ccc4O)c3n2)c1,0
16,Cc1ccc(F)cc1-c1cc(N2CCCN(C(=O)c3ccc(Br)o3)CC2)ncn1,0
17,CCn1c(-c2nonc2N)nc2c(-c3cccc(NC(=O)Nc4cccc(C(F)(F)F)c4)c3)ncc(OCCCN)c21,14.6
18,COc1ccc(CNCc2ccccc2)cc1-c1ccc(S(=O)(=O)NCCN2CCCC2)s1,11.1
19,OC(CN1CCN(Cc2ccccc2)CC1)Cn1c(-c2ccccc2)c(-c2ccccc2)c2ccccc21 (stereo not drawn),2.13
20,CCCc1cc(N2CCC(N3CCCC3)CC2)nc(Nc2ccc(Cl)cc2)n1,2.6

row,Compound,IFI [%]
1,NC1CCN(CCc2ccc(NS(=O)(=O)c3ccc(-c4ccccc4)cc3)cc2)CC1,12.5
2,COc1cccc(C(=O)NCCc2cccc(Cl)c2)c1Oc1ccccc1,-0
3,Cc1cccc2nc(-c3ccc(-c4ccc(NC(=O)Nc5ccsc5)cc4)s3)[nH]c12,6.06
4,COc1ccc(NC(=O)/C=C/c2ccc(-c3ccccc3)cc2)cc1N1CCN(C)CC1,2.21
5,Cc1cc(C2CCN(CCCCNC(=O)c3ccc(-c4ccc(C(F)(F)F)cc4)cc3)CC2)c(C)cc1OCC#N,4.59
6,NCCCN(Cc1ccc(Cl)c(Cl)c1)C(=O)Nc1ccc(Cl)c(Cl)c1,17.7
7,COc1ccc(CNC2Cc3ccccc3C2)cc1-c1ccc(S(=O)(=O)NCCN2CCCC2)c(F)c1,10.2
8,Clc1nc2ccccn2c1C=Cc1ccc2ccccc2n1,1.41
9,CCc1ccc(CN2CCC(CNC(=O)c3cc(-c4cccc(Cl)c4)cs3)C2)cc1 (stereo not drawn),8.16
10,N=C(NCCCCCCCCNC(=N)Nc1ccc(Cl)cc1)Nc1ccc(Cl)cc1,3.65
11,O=C(/C=C/c1ccc(Cl)c(Cl)c1)NCCCCCN1CCC(NC(=O)c2ccc(F)cc2F)CC1,7.14
12,COc1cccc(C23NC(=Nc4nc5ccccc5[nH]4)NC2(c2cccc(OC)c2)NC(=Nc2nc4ccccc4[nH]2)N3)c1 (stereo not drawn),2.86
13,CCOc1cc(C)ccc1C1CCN(CCCCNC(=O)c2cccc(-c3ccc(C(F)(F)F)cc3)c2)CC1,9.65
14,CCN(CCN(C)C)Cc1ccc(-c2ccc(NS(=O)(=O)c3cccc4cccnc34)cc2)cc1,6.61
15,CN(C)CCOc1cc(NC(=O)Nc2cccc([N+](=O)[O-])c2)ccc1I,2.99
16,Cc1cc(-c2cccc(CNC3CCCC3)c2)ccc1S(=O)(=O)NCCN1CCCC1,6.93
17,CN1CCC(C(=O)Nc2ccc(-c3ccc(-c4nc5ccccc5[nH]4)s3)cc2)CC1,3.48
18,CCN1CCC(NCc2ccc(-c3ccc(Cl)cc3)cc2)CC1,5.63
19,O=C(Nc1ccc2c(c1)CNCC2)c1ccc(-c2ccc(Cl)cc2)cc1,7.86
20,CCNc1cc(C(=O)N[C@@H](Cc2ccccc2)[C@H](O)CNCCc2ccccc2)cc(N2CCCC2=O)c1,0.72

row,Compound,IFI [%]
1,COc1ccc(N2CCN(CCCNC(=O)c3ccc(NC(=O)c4cc(Cl)cc(Cl)c4)cc3)CC2)c(OC)c1,7.08
2,Cc1nc(-c2ccc(-c3ccc(C(=O)Nc4ccc(Cl)c(N5CCN(C)CC5)c4)cc3)c(C)c2)no1,9.09
3,Cc1cccc(CN2CCCC3(CCN(Cc4ccccc4O)C3)C2)c1 (stereo not drawn),4.88
4,COc1cc(C)nc2ccc(NC(=O)c3cc([N+](=O)[O-])cc([N+](=O)[O-])c3)cc12,1.41
5,CC(C)CC(=O)N1CCNC[C@@H]1C(=O)NC1CC1,0.72
6,CNc1ccc(CNCc2cccc(-c3ccc(-c4nc5cccc(C)c5[nH]4)cc3)c2)cc1,12
7,COc1ccc(Cl)cc1NC(=O)C(C)Nc1ccc(-c2ccccc2)cc1 (stereo not drawn),0.76
8,Nc1[nH]c2ccccc2c(=O)c1-c1nc2ccccc2s1,1.8
9,Cc1cc(OCCCN2CCC(NS(=O)(=O)c3ccc(Cl)c(Cl)c3)C2)c2ccccc2n1 (stereo not drawn),3.39
10,CS(=O)(=O)Nc1cccc(-c2cnc3[nH]cc(-c4cc(N)cc(C(=O)O)c4)c3c2)c1,6.48
11,CCCCCCCn1c2c(c(=N)c3c1CCC3)CCCC2,14.8
12,c1ccc2[nH]c(-c3ccc(-c4ccc(CN5CCCCC5)cc4)cc3)nc2c1,5.63
13,CCCCc1ccc2[nH]c(NC(=O)OC)nc2c1,2.88
14,CCN(CC1CCN(CC2(O)CCOCC2)CC1)c1cc(C)nc(Nc2ccc(Cl)cc2)n1,10.3
15,CC(C)CN1CCC(COc2ccc3ncn(-c4cc(O[C@H](C)c5ccccc5C(F)(F)F)c(C(N)=O)s4)c3c2)CC1,11.1
16,Cc1ccc2nc(C)cc(N/N=C/c3ccc([N+](=O)[O-])cc3)c2c1,1.47
17,O=C(NC1CC1)c1ccc(Cn2c(SCc3cccc(Cl)c3)nc3ccccc3c2=O)cc1,0.71
18,O=C(C1CC1)N1c2ccccc2CCc2ccccc21,3.06
